Results taken from patent US10456339B2, “Organic hydroperoxide reduction in perfumery raw materials” (FIRMENICH SA, priority 2017, dated 2019).

Tests used:
[1] = POV of model perfume treated with AKG-DiMeC12A salt; settings: 2.0% w/v
Experimental: A model perfume was made using 90/10 v/v ethanol/water as a solvent, and a mixture of orange, grapefruit, and bergamot oils as the perfume oil. The mixed citrus oil was loaded into the solvent at approximately 19.4% v/v (6 mL oil into 25 mL solvent). […] An untreated perfume sample was handled similarly to the treated perfume and also tested, because the POV can rise rapidly with handling of the sample (opening the bottle, agitation, etc.).

[2] = POV of mixed citrus oil treated with AKG-DiMeC12A salt; settings: 1.0% w/v
Excerpt: In addition to the treatment done in a model perfume as described above, a similar experiment was done in mixed citrus oil. A sample of mixed citrus oil was made by combining lime, orange, grapefruit, lemon, mandarin, tangerine, and bergamot oils, so that a variety of terpene hydroperoxides would be present in the treated mixture being tested. […] An untreated mixed citrus oil sample was handled similarly to the treated oil and also tested, because the POV can rise rapidly with handling of the sample (opening the bottle, agitation, etc.).

[3] = Reduction of POV in model perfume using AKG-HEI; settings: 1.0% w/v
Experimental: (§1) The mixed citrus oil was loaded into the solvent at approximately 16.7% v/v (40 mL oil into 200 mL solvent, 240 mL total perfume). Approximately 150 mg (1.0% w/v) of the AKG-HEI salt was dissolved in 15 mL of the mixed citrus perfume, and POV measurements were taken as a function of time after the addition. An untreated perfume sample was handled similarly to the treated perfume and also tested, because the POV can rise rapidly with handling of the sample (opening the bottle, agitation, etc.).

[4] = POV of model perfume treated with AKG-mono(DiMeC12A); settings: 1.0% w/v
Experimental: A model perfume was made using 90/10 v/v ethanol/water as a solvent, and a mixture of orange, grapefruit, and bergamot oils as the perfume oil. The mixed citrus oil was loaded into the solvent at approximately 19.4% v/v (6 mL oil into 25 mL solvent). Approximately 200 mg (1.0% w/v) of the AKG-monoMeC12A salt was dissolved in 20 mL of the mixed citrus perfume, and POV measurements were taken as a function of time after the addition. An untreated perfume sample was handled similarly to the treated perfume and also tested, because the POV can rise rapidly with handling of the sample (opening the bottle, agitation, etc.).

[5] = Reduction of POV in model perfume using PhPA-DiMeC10A; settings: […] w/v
Experimental: as §1, with “164” for “150”, “(1.1%” for “(1.0%”, “PhPA-DiMeC10A” for “AKG-HEI”

[6] = Reduction of POV in model perfume using oxaloacetic acid; settings: 0.83% w/v; […] (24 hours); indistinguishable from blank
[7] = Reduction of POV in model perfume using α-ketoglutaric acid; settings: 1.2% w/v; 0.0 min (start value)

Compound: CCCCCCCCCCCCN(C)C.CCCCCCCCCCCCN(C)C.O=C(O)CCC(=O)C(=O)O [AKG-DiMeC12A]
- POV of Treated Perfume ([1]; 0.0 min (start value)): 12.74 mmol/L
- POV of Treated Perfume ([1]; 35 min): 8.31 mmol/L
- POV of Treated Perfume ([1]; 45 min): 8.35 mmol/L
- POV of Treated Perfume ([1]; 70 min): 6.77 mmol/L
- POV of Treated Perfume ([1]; 130 min): 6.54 mmol/L
- POV of Treated Perfume ([1]; 145 min): 5.82 mmol/L
- POV of Treated Perfume ([1]; 180 min): 4.89 mmol/L
- POV of Treated Perfume ([1]; 210 min): 4.51 mmol/L
- POV of Treated Perfume ([1]; 240 min (4 hours)): 4.15 mmol/L
- POV of Treated Perfume ([1]; 270 min): 3.49 mmol/L
- POV of Treated Perfume ([1]; 4320 min (3 days, 72 hours), indistinguishable from blank): 0.0 indistinguishable mmol/L
- POV of Treated Perfume ([2]; 0.0 min (start value)): 9.53 mmol/L
- POV of Treated Perfume ([2]; 90 min): 3.32 mmol/L
- POV of Treated Perfume ([2]; 95 min): 2.32 mmol/L
- POV of Treated Perfume ([2]; 105 min): 2.63 mmol/L
- POV of Treated Perfume ([2]; 130 min): 2.68 mmol/L
- POV of Treated Perfume ([2]; 150 min (2.5 hours)): 2.28 mmol/L
- POV of Treated Perfume ([2]; 250 min): 1.81 mmol/L
- POV of Treated Perfume ([2]; 260 min): 1.41 mmol/L
- POV of Treated Perfume ([2]; 4320 min (3 days, 72 hours)): 1.50 mmol/L

Compound: O=C(O)CCC(=O)C(=O)O.O=C1NCCN1CCO.O=C1NCCN1CCO [AKG-HEI]
- POV of Treated Perfume ([3]; 1 day): 1.12 mmol/L
- POV of Treated Perfume ([3]; 2 days): 0.72 mmol/L
- POV of Treated Perfume ([3]; 4 days): 0.70 mmol/L
- POV of Treated Perfume ([3]; 7 days): 0.56 mmol/L

Compound: CCCCCCCCCCCCN(C)C.O=C(O)CCC(=O)C(=O)O [AKG-mono(DiMeC12A)]
- POV of Treated Perfume ([4]; 0.0 min (start value)): 11.99 mmol/L
- POV of Treated Perfume ([4]; 30 min (0.5 h)): 7.01 mmol/L
- POV of Treated Perfume ([4]; 45 min (0.75 h)): 6.97 mmol/L
- POV of Treated Perfume ([4]; 60 min (1.0 h)): 7.02 mmol/L
- POV of Treated Perfume ([4]; 180 min (3.0 h)): 4.89 mmol/L
- POV of Treated Perfume ([4]; 210 min (3.5 h)): 4.54 mmol/L
- POV of Treated Perfume ([4]; 240 min (4.0 h)): 3.78 mmol/L
- POV of Treated Perfume ([4]; 270 min (4.5 h)): 3.77 mmol/L
- POV of Treated Perfume ([4]; 300 min (5.0 h)): 3.05 mmol/L
- POV of Treated Perfume ([4]; 340 min (5.67 h)): 2.52 mmol/L
- POV of Treated Perfume ([4]; 1560 min (26 hours), indistinguishable from blank): 0.0 indistinguishable mmol/L
- POV of Treated Perfume ([4]; […] (24 hours)): 0.76 mmol/L
- POV of Treated Perfume ([4]; […] (24.5 hours)): 0.67 mmol/L

Compound: CCCCCCCCCCN(C)C.O=C(O)C(=O)Cc1ccccc1 [DiMeC10A-PhPA]
- POV of Treated Perfume ([5]; 0.0 (start value)): 9.44 mmol/L
- POV of Treated Perfume ([5]; 0.5 hours): 5.7 mmol/L
- POV of Treated Perfume ([5]; 4 hours): 4.58 mmol/L
- POV of Treated Perfume ([5]; 1 day): 3.1 mmol/L
- POV of Treated Perfume ([5]; 2 days): 2.38 mmol/L
- POV of Treated Perfume ([5]; 4 days): 1.98 mmol/L
- POV of Treated Perfume ([5]; 7 days): 1.33 mmol/L

Compound: O=C(O)CC(=O)C(=O)O [oxaloacetic acid]
- POV of Treated Perfume [6]: 0.0 indistinguishable mmol/L

Compound: O=C(O)CCC(=O)C(=O)O [α-ketoglutaric acid]
- POV of Treated Perfume [7]: 11.99 mmol/L
